Assay results taken from patent publication US20250092109A1 (XILIO DEVELOPMENT, published 2025).

Target: PD-1 (UniProt Q15116 25-288, limits assumed)
Experiment: cell-based or functional assay

Sequence of UniProt Q15116 (Q15116 25-288 limits assumed): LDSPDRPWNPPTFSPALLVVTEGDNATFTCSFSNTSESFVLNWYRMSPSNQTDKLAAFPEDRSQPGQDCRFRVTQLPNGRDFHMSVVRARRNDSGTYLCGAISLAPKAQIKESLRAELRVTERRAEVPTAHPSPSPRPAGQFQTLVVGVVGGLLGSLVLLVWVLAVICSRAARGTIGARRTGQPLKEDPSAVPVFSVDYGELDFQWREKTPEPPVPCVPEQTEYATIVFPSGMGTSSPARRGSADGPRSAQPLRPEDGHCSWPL

B1: C6 (Fc fusion)
chain 1: [not shown - about 150 residues]
chain 2: EVQLVESGGGLVQPGGSLRLSCAASGSIFSINVMGWYRQAPGKQRELVAAISSGGSTNYADSVKGRFTISRDNAKNTVYLQMNSLKPEDTAVYYCMYASSWYEDETDYWGQGTQVTVSS
For B1, the “EC50, PD-1/PD-L1 Blockade Bioassay (fold induction of luminescence, TCR signaling)” value was 1.46.

B2: C5 (Fc fusion)
chain 1: [not shown - about 150 residues]
chain 2: EVQLVESGGGLVQPGGSLRLSCAASGSIFSINVMGWYRQAPGKQRELVAAISSGGSTNYADSVKGRFTISRDNAKNTVYLQMNSLKPEDTAVYYCMYASSWYEDETDYWGQGTQVTVSSAAA
With B2 the “EC50, PD-1/PD-L1 Blockade Bioassay (fold induction of luminescence, TCR signaling)” value was 1.29.
